Reference: PubChem BioAssay AID1794842 (National Center for Advancing Translational Sciences (NCATS), 2023)
The whole screen tested about 2,800 compounds, of which fewer than 10 were called active. The call rests on the fitted dose curve; in most records, active means well fitted curve in the direction sought with a large enough effect; inconclusive means small, poorly fitted or top-dose-only effect, or another doubt; inactive means no such curve, though single readings can be large or run the other way. The list shows a part of the results.

Target: Metallo-beta-lactamase type 2 (Klebsiella pneumoniae) (UniProt C7C422)
Sequence of UniProt C7C422 (C7C422 whole entry, looked up): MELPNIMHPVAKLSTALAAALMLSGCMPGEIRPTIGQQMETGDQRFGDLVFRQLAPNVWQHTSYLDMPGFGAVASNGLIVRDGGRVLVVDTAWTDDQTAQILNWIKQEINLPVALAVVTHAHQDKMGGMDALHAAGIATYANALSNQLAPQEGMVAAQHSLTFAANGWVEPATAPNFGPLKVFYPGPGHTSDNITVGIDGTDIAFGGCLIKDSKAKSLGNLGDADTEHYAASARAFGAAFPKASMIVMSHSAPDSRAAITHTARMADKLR
Test: qHTS to identify inhibitors of the New Delhi Metallo-beta-lactamase (NDM): Meropenem screen against the machine-based learning selections. Further: % of control where 0% means no effect.
Details: Purified NDM-1, meropenem hydrolysis, absorbance 300 nm; at 38.4 µM (top of the series) unless noted
Procedure, shortened: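 NDM-1 (2 nM final) in 50 mM HEPES pH 7.0, 1 uM Zn2SO4, 0.01% Tween20 was preincubated with compounds for >30 min. Nitrocefin (16.7 uM final) was read at 485 nm after 15 min, and meropenem (50 uM final) at 300 nm after 30 min.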

Row | SMILES | activity change, negative = inhibition
1 | CCc1cn(C[C@H](NC2CCOCC2)C(=O)O)c(=O)[nH]c1=O | inactive: 48.7% [at 57.5 µM]
2 | COc1ccc(C[C@H](NC(=O)[C@@]2(O)C[C@@H](O)[C@H](O)[C@@H](NC(=O)Nc3ccc(C(C)=O)cc3)C2)C(N)=O)cc1 | inactive: 3.74%
3 | O[C@@H]1CCN(Cc2nc(C3(O)CCN(C4CCCC4)CC3)cs2)C1 | inactive: -2.53% [at 57.5 µM]
4 | O=C(NC1CCCN(c2cc(-c3ccc(F)cc3)[nH]n2)C1)c1cccc(Cl)c1 (stereo not drawn) | inactive: 3.59%
5 | O=C(Nc1ccccc1)c1cnc2n1CCN(Cc1cccc(O)c1)CC2 | inactive: 2.61% [at 57.5 µM]
6 | CC(=O)N[C@@H]1CCC[C@@H](C(=O)NC2CCOCC2)CC(=O)N(C)C1 | inactive: 0.046% [at 57.5 µM]
7 | O=C(NCc1nncn1C1CCCCC1)C1NCCc2[nH]cnc21 (stereo not drawn) | inactive: 8.92%
8 | COc1ccc(CN2CCC3(CCC(=O)N(Cc4ccncc4)C3)CC2)c(F)c1 | inactive: -1.3%
9 | NC(=O)c1cccc(-c2cc3c(cn2)CN(CCc2ccccc2)CCN3)c1 | inactive: -0.665% [at 57.5 µM]
10 | CC1=C[C@@H](CNS(=O)(=O)c2ccc(F)cc2)[C@H](C(C)C)C[C@H]1CC(=O)NCCN(C)C | inactive: -3.42%
11 | N#Cc1cccc(NC(=O)c2cccc(CN3CCN(CCO)CC3)c2)c1 | inactive: 0.293%
12 | O=C(N[C@H](Cc1ccncc1)C1CC(O)C1)c1cccn1C1CC1 (stereo partly drawn) | inactive: -0.0289%
13 | Cn1cc(CN[C@H]2C[C@H]3C(=O)NC[C@@H](CCC(=O)N4CCc5ccccc54)N3C2)c2ccccc21 | inactive: -1.57%
14 | O=C(Nc1ccc(-c2nnc3n2CCCC3)cc1)c1ccc2c(c1)OCO2 | inactive: 10.4%
15 | COc1cccc(CCC(=O)N2CCC3(CC2)N(c2ccccc2)C(=O)CS3(=O)=O)c1 | inactive: 0.744%
16 | COc1ccc(CNC(=O)C[C@@H]2C[C@H]3O[C@H](CNC(=O)NC(C)C)[C@@H](O)[C@H]3O2)cc1 | inactive: -0.0225% [at 57.5 µM]
17 | O=C(c1ccncc1)N1CC[C@H](c2nnc(-c3ccncc3)o2)C1 | inactive: -2.73% [at 57.5 µM]
18 | COCc1nnc2n1CCC(NC(=O)COc1ccc(Cl)cc1)CC2 (stereo not drawn) | inactive: 1.62%
19 | Cc1cccc(N(C)C(=O)Cn2c(N3CCc4ccccc4C3)nc(C)cc2=O)c1 | inactive: -2.52%

Row | SMILES | activity change, negative = inhibition
20 | O=C(NC[C@H]1OC[C@@H](NCc2cccs2)[C@@H]1O)Nc1ccccc1 | inactive: -0.201% [at 57.5 µM]
21 | COCCNc1ncccc1-c1noc([C@@H]2CCCN2CC(C)(C)C)n1 | inactive: 2.51% [at 57.5 µM]
22 | O=C(O)c1ccc(C2CCCN(C(=O)c3cccc4cccnc34)C2)cc1 (stereo not drawn) | inactive: 2.45%
23 | c1ccc(Nc2cc3c(cn2)CN(Cc2ccsc2)CCN3)cc1 | inactive: -0.268% [at 57.5 µM]
24 | C[C@]1(CO)[C@H]2Cc3sc(NC(=O)C4CCCCC4)nc3[C@@H](CC(=O)N3CCOCC3)[C@]2(C)CC[C@H]1O | inactive: -0.0233%
25 | C[C@@H](NS(=O)(=O)c1ccc(Cl)cc1)c1onc(-c2cccnc2)c1C(=O)O | inactive: 5.47% [at 57.5 µM]
26 | CSCC(=O)N1CC[C@H](NC(=O)Nc2cccc(SC)c2)[C@H]1C(=O)N[C@@H](Cc1cccs1)C(N)=O | inactive: -0.536%
27 | O=C(Cc1ccccc1C(F)(F)F)N1CCC2(CC1)[C@H](O)C[C@@H]2O | inactive: -3.71%
28 | c1ccc(-c2cc3c(cn2)CN(Cc2c[nH]c4ccccc24)CCN3)cc1 | inactive: -1.8% [at 57.5 µM]
29 | CC(C)Oc1ccc2c(NC(=O)c3ncc(F)cc3F)nn(CC(F)(F)F)c2c1 | inactive: 28.7%
30 | O[C@H]1CC[C@@H](Cc2cc(COc3ccccc3)on2)O[C@@H]1CNC1CCOCC1 | inactive: 1.9% [at 57.5 µM]
31 | CC(C)(O)c1cc(CC2(NCc3cnc4ccccc4c3)COC2)no1 | inactive: 0.689% [at 57.5 µM]
32 | CC1(C(=O)Nc2ccccc2)COCc2cnc(Nc3ccccc3)nc21 (stereo not drawn) | inactive: 1.41% [at 57.5 µM]
33 | COc1ccc(-c2[nH]ncc2CN2CC[C@H]3CC[C@@H](C2)N3)cc1 | inactive: 42.2%
34 | CN1C[C@@H](NC(=O)c2ccc(C(C)(C)C)cc2)C[C@H]1c1nc(-c2ccncc2)no1 | inactive: -0.0853% [at 57.5 µM]
35 | CC(C)N1C(=O)CO[C@H](c2ccc(NC(=O)c3ccccc3)cc2)[C@H]1CO | inactive: 1.42% [at 57.5 µM]
36 | Cc1cccc2c1nc1n2[C@@H](CNCc2ccccc2)COC1 | inactive: -1.48% [at 57.5 µM]
37 | CCOC(=O)C[C@@H]1C[C@@H](C(C)C)[C@H](CNC(=O)c2ccc(F)cc2)C=C1C | inactive: 1.91% [at 57.5 µM]
38 | Cc1cc(Cn2cc3c4c(cccc42)[C@H](CC(C)C)N[C@H](C(=O)N2CCN(C)CC2)C3)no1 | inactive: 1.09%
